Source: publication PMC4336329 (PLoS ONE, 2015)
Out of some 310,000 compounds screened, about 14,000 (4.5%) showed an effect of 50% or more. The effect is printed as a negative number. The list shows a part of the results.

Biological target: human ether-à-go-go-related gene (hERG) potassium channel (human, UniProt Q12809)
Test: primary screen, population patch clamp on CHO cells stably expressing hERG
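Note: peak tail current of the secondary pulse compared with the same well before compound.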

human ether-à-go-go-related gene (hERG) potassium channel, sequence (Q12809 whole entry, looked up): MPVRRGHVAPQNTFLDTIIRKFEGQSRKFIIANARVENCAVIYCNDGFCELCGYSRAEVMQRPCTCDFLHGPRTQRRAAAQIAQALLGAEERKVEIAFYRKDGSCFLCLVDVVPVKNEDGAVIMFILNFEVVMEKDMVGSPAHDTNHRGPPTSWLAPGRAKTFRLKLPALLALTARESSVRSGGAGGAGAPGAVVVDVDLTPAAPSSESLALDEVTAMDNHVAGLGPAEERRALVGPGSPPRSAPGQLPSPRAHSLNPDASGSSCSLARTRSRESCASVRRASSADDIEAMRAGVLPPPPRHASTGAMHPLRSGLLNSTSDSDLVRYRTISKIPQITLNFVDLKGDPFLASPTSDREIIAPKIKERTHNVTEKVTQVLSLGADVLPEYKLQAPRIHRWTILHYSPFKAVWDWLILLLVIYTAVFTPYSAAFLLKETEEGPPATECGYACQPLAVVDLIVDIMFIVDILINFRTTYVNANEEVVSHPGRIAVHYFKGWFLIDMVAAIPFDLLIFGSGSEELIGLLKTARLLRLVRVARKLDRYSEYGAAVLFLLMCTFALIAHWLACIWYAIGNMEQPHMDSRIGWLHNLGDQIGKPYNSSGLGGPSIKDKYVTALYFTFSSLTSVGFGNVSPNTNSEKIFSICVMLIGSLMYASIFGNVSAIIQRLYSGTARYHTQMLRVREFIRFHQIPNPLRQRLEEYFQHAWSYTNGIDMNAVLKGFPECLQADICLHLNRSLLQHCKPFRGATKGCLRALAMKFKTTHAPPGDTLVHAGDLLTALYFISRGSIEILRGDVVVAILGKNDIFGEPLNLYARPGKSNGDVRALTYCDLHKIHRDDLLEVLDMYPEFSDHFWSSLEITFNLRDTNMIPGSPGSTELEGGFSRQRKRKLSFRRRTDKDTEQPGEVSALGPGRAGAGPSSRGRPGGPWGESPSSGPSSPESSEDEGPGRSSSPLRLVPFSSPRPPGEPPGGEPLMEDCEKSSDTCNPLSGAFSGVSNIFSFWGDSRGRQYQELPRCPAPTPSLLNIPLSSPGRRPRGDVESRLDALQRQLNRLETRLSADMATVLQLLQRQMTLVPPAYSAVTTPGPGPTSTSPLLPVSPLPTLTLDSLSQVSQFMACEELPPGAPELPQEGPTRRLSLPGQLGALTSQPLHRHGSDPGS

Point of comparison: `Cc1cc(S(=O)(=O)N2CCCC2C(=O)N2CCOCC2)c(C)cc1Cl` (centres unmarked), “hERG current change (%, negative = inhibition) at 10uM” value -31.6%. Against it:
- O=C(COC(=O)CCSc1ccccc1)NCc1ccc(F)cc1 — higher, 14.3%
- Cc1onc(-c2ccccc2)c1C(=O)Nc1ccc(Br)cc1Cl — higher, 23.5%
- COc1ccc(Nc2ncnc3nc[nH]c23)cc1OC — higher, 14%
- CCCC(=O)Nc1cc(C(=O)O)ccc1Sc1ccc(C)cc1 — higher, 4.5%
- CCOC(=O)CNc1cccc(C(F)(F)F)c1 — higher, 1.17%
- CC1(C)CC(=O)C(C=Nc2cccnc2/N=C/C2=C(O)CC(C)(C)CC2=O)=C(O)C1 — higher, 14%
- COc1c(Br)cc(Br)cc1/C=C1/C(=O)N=C(N)N1C — higher, -6.22%
- COc1cccc2sc(NNC(=O)C3COc4ccccc4O3)nc12 (centres unmarked) — higher, 14.6%
- Cc1ccc(CNC(=O)CCNC(=O)c2ccc(Br)o2)cc1 — higher, -0.891%
- Cc1ccc(S(=O)(=O)N2[C@@H](c3ccccc3F)C(C(=O)O)=CC[C@H]2c2ccc(Cl)cc2)cc1 — higher, 9.58%
- CC1(C)Cc2ccccc2C(NNC(=O)c2ccc(Br)o2)=N1 — higher, 2.54%
- Cc1ccc(CNC(=O)CC(C)S(=O)(=O)c2ccc3c(c2)NC(=O)CS3)o1 (centres unmarked) — higher, -0.00952%
- CC1CCc2nc(N)c(C#N)c(-c3cccn3C)c2C1 (centres unmarked) — higher, 9.35%
- COc1cccc(-c2cc(C(=O)Nc3ccccc3)c3ccccc3n2)c1 — higher, 8.07%
- COc1ccc(CCC(=O)NCc2cn3ccccc3n2)cc1 — higher, -2.46%
- CCC(=O)c1c[nH]c(C(=O)NCC2CCCO2)c1 (centres unmarked) — higher, -1.32%
- Cn1ncc(Cl)c1C(=O)NCc1ccco1 — higher, 2.11%
- CC(C)=NNC(=O)CN1C(=O)NC2NC(=O)NC21 (centres unmarked) — higher, 13.2%
- N#Cc1c(Nc2ccccc2)c(C=NCCN2CCOCC2)c[nH]c1=O — higher, 14.2%
- CCn1c(=O)c(C(=O)NNC(=O)c2ccccc2Br)c(O)c2ccccc21 — higher, 7.21%
- COc1cccc(Cn2nc3c4cc(F)ccc4n(Cc4ccc(F)cc4)cc-3c2=O)c1 — higher, 19.3%
- O=C(O)/C=C/C(=O)Nc1ccc(-n2nccc2C(F)(F)F)cc1 — higher, 15%
- CCOC(=O)c1ccc(NS(=O)(=O)c2cn(C)cn2)cc1 — higher, 14.7%
- CCN(CC(=O)Nc1cc(Cl)ccc1C)c1ncnc2sc(C)c(C)c12 — higher, -24.5%
- CSc1ccc(CN2CCc3c([nH]c4ccccc34)C2)cc1 — lower, -52.7%
- CCCCCCC(=O)NNC(=O)c1c(O)c2ccccc2n(CCC)c1=O — higher, 3.41%
- Cc1ccc(S(=O)(=O)N2N=C3CCCCC3C2(O)C(F)(F)F)cc1 (centres unmarked) — higher, 4.99%
- COc1ccc(N(CC(=O)NCc2ccc3c(c2)OCO3)C(=O)c2csnn2)cc1 — higher, -13.6%
- Cc1ccc(S(=O)(=O)Nc2ccccc2CNc2cccc(C)n2)cc1 — higher, -5.51%
- Cc1ccc2c(c1)C(c1ccncc1)=NNC(c1cccnc1)=N2 — higher, -4.46%
- O=C(Nc1nc(-c2ccccn2)cs1)c1cc(Cl)ccc1[N+](=O)[O-] — higher, -5.92%
- O=C(NCc1ccc2c(c1)OCO2)C(=O)NCC1OCCCN1S(=O)(=O)c1ccc(F)cc1 (centres unmarked) — higher, -11.2%
- COC(=O)C(NC(=O)COc1ccccc1)(Nc1nc2c(s1)CCCC2)C(F)(F)F (centres unmarked) — higher, 13.1%
- O=C(COC(=O)CCc1nc2ccccc2c(=O)[nH]1)Nc1ccc(N2CCOCC2)cc1 — higher, -8.78%
- O=C(C[n+]1ccc(-c2nnc3n2CCC3)cc1)c1ccc(Cl)c(Cl)c1.[Br-] — higher, -14%
- CC(C)C(=O)Nc1cc(S(=O)(=O)Nc2ccc(Cl)cc2)ccc1Cl — higher, -3.35%
- CN(C)Cc1cc(O)c(CN(C)C)cc1O — higher, 4.42%
- CCNC(=O)C1Cc2cc(S(=O)(=O)N3CCCC3)ccc2N1C(C)=O (centres unmarked) — higher, 10.5%
- COc1cc(-c2[nH]ncc2CN(C)Cc2nonc2C)cc(OC)c1OC — higher, -7.85%
- CC(C)(C)NC(=O)CSc1nnc(NC(=O)CCn2cnc3ccccc3c2=O)s1 — higher, 19.6%
- CCOc1cc(-c2noc(CCCC(=O)NC3CCCCC3)n2)ccc1OC — higher, -6.17%
- CC(=O)C1=C(O)C(=O)N(Cc2ccccc2)C1c1ccc(Cl)cc1 (centres unmarked) — higher, 15%
- O=C1Nc2ccc3sc4ccccc4c3c2C1=O — higher, 11.8%
- CC1Cc2cc(S(=O)(=O)CCC(=O)NC3CCCCC3)ccc2N1C(=O)C1CC1 (centres unmarked) — higher, 8.62%
- COc1ccccc1OCC(=O)N1CCCC(Nc2ccc(C)c(C)c2)C1 (centres unmarked) — higher, -11%
- CC1(C)Cc2noc(N)c2C(C)(C)N1O.Cl — higher, 8.55%
- COc1ccc(N2CCN(C(=O)c3ccc(NS(=O)(=O)c4cccs4)cc3)CC2)cc1 — higher, -30.7%
- Cc1ccc(C(=O)NC2CCSC2=O)cc1 (centres unmarked) — higher, 7.89%
- O=C1c2cccc3cccc(c23)C(=O)N1CCN1CCN(C(=S)Nc2ccc(F)cc2)CC1 — higher, 8.16%
- CC(=O)c1c(C(C)=O)c(C)n(NC(=O)c2cccnc2)c1C — higher, 10.6%
- CCCN1CCN(CCCNC(=O)c2ccc3c(=O)n(CCc4ccccc4)c(=O)[nH]c3c2)CC1 — higher, 3.7%
- CC(C)NC(=O)NC(=O)COC(=O)c1ccccc1O — higher, -9.91%
- CC1(C)CC(NC(=O)c2ccc(Cl)c(S(=O)(=O)N(Cc3ccccc3)c3ccccc3)c2)CC(C)(C)N1 — lower, -62.3%
- CCOC(=O)c1c(C)noc1CP(=O)(c1ccccc1)c1ccccc1 — higher, -6.61%
- Cc1cc(C)cc(N(C(=O)CCC(=O)Nc2ccccn2)C(C(=O)NC(C)C)c2ccc(O)cc2)c1 (centres unmarked) — higher, 11.9%
